The other results are listed elsewhere or left out. Each Rep nickase domain was tested in vitro on the same pool of single strands (3 µM enzyme, 1 h, 37 °C); shown is the middle of each 90-letter strand. Numbers give uncut DNA relative to the enzyme-free pool, as log2; the lower, the more was cut; hits are not called. The scaling is to total reads, so uncut sequences can rise above 0 when many others are cut.
Columns and labels:
Assay in all cases: uncleaved DNA left, log2 of reads against the no-enzyme library (log2 ratio); higher = less cleavage (more negative = more Rep cleavage of the k-mer); sequences stand for … in CTCGTCCG…ACCGGAGA
[1] = test system: T1, Rep nickase domain of Muscovy duck circovirus
T1 sequence (residues 1-111, tag not shown): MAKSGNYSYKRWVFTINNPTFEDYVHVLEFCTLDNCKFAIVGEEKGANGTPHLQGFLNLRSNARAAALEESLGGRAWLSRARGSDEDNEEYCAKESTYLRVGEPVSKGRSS
Procedure: (§1)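 A pool of 90-nt single-stranded DNAs with seven random bases just before the constant AC of the nick site (name = the seven bases) was cut by 3 µM recombinant His6-SUMO-tagged Rep nickase domain (300 nM DNA, 50 mM HEPES pH 8.0, 50 mM NaCl, 1 mM MnCl2, 1 h, 37 °C, three replicates). Uncut DNA was amplified and sequenced.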

[2] = test system: T2, Rep nickase domain of banana bunchy top virus
T2 sequence (residues 1-94, tag not shown): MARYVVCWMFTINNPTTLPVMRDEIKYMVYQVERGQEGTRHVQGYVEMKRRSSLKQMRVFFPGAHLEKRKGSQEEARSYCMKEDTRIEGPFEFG
Procedure: as §1

[3] = test system: T3, Rep nickase domain of cabbage leaf curl virus
T3 sequence (residues 1-116, tag not shown): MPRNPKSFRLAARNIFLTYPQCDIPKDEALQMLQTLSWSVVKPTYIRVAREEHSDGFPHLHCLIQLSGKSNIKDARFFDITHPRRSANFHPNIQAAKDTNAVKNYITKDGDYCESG
Procedure: as §1

[4] = test system: T4, Rep nickase domain of chickpea chlorotic dwarf virus
T4 sequence (residues 1-124, tag not shown): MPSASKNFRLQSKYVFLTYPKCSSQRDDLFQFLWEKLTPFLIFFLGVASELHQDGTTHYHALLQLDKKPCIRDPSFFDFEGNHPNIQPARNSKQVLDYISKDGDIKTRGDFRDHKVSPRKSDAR
Procedure: as §1

[5] = test system: T5, Rep nickase domain of faba bean necrotic yellows virus
T5 sequence (residues 1-98, tag not shown): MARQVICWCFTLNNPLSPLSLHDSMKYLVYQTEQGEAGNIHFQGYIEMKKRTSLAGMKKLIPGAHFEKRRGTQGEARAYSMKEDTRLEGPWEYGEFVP
Procedure: as §1

[6] = test system: T6, Rep nickase domain of maize striate mosaic virus
T6 sequence (residues 1-117, tag not shown): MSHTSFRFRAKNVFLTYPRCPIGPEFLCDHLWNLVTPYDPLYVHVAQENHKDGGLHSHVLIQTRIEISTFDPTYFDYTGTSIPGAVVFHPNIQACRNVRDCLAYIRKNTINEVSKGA
Procedure: as §1

[7] = test system: T7, Rep nickase domain of porcine circovirus 2
T7 sequence (residues 2-116, tag not shown): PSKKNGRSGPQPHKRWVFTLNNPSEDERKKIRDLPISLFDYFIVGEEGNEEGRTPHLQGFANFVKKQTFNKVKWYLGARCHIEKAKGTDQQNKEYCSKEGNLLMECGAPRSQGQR
Procedure: as §1

[8] = test system: T8, Rep nickase domain of tomato golden mosaic virus
T8 sequence (residues 1-124, tag not shown): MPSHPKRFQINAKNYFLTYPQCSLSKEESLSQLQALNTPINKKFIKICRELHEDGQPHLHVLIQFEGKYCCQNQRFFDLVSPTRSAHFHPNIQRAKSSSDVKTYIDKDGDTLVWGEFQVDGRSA
Procedure: as §1

[9] = test system: T9, Rep nickase domain of tomato yellow leaf curl virus
T9 sequence (residues 1-136, tag not shown): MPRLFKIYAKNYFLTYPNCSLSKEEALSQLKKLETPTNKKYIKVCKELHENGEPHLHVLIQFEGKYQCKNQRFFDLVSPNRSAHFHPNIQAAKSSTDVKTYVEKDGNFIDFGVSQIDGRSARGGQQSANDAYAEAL
Procedure: as §1

[10] = test system: T10, Rep nickase domain of wheat dwarf virus
T10 sequence (residues 1-137, tag not shown): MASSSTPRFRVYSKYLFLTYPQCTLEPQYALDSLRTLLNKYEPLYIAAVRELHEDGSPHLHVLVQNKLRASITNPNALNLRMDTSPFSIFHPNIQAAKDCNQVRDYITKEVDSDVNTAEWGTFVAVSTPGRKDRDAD
Procedure: as §1

| Sequence | uncleaved DNA left (log2) [1] | uncleaved DNA left (log2) [2] | uncleaved DNA left (log2) [3] | uncleaved DNA left (log2) [4] | uncleaved DNA left (log2) [5] | uncleaved DNA left (log2) [6] | uncleaved DNA left (log2) [7] | uncleaved DNA left (log2) [8] | uncleaved DNA left (log2) [9] | uncleaved DNA left (log2) [10] |
| --- | --- | --- | --- | --- | --- | --- | --- | --- | --- | --- |
| CCCACCC | -0.152 | -0.105 | 0.0191 | -0.786 | -0.129 | -0.278 | -0.503 | -0.0596 | -0.144 | -0.0232 |
| GTCTTCG | 0.0612 | 0.0926 | 0.19 | 0.588 | 0.122 | 0.865 | 0.19 | 0.218 | 0.053 | 0.229 |
| GCGCCCC | 0.0642 | 0.131 | 0.221 | 0.5 | 0.139 | 0.445 | 0.0639 | -0.00514 | 0.104 | 0.14 |
| CCTCACA | -0.183 | -0.0313 | -0.0886 | -1.61 | -0.0743 | -0.654 | -0.0446 | -0.127 | 0.0106 | -0.0685 |
| CCCTTGG | -0.0077 | -0.0453 | -0.4 | -0.486 | 0.0513 | -1.26 | -0.0243 | 0.132 | -0.00175 | -0.158 |
| GAAGTCA | 0.0612 | 0.00114 | 0.191 | -0.0908 | -0.0526 | 0.724 | 0.0361 | -0.0794 | 0.0552 | 0.00702 |
| TACCTCG | 0.0078 | 0.111 | -0.879 | -1 | 0.00194 | -1.2 | -0.845 | 0.00691 | 0.0239 | -0.0197 |
| AAACATT | -0.0574 | 0.0237 | -1.36 | -2.52 | -0.0503 | 0.338 | -0.714 | -0.125 | 0.0993 | -0.238 |
| AAACACG | -0.0533 | -0.0347 | -0.938 | -0.189 | -0.0451 | -0.971 | 0.106 | -0.0165 | -0.0308 | -0.123 |
| CCTGGAG | -0.00685 | -0.0875 | -0.811 | -0.339 | -0.0387 | -1.02 | 0.0444 | -0.0487 | -0.0102 | -0.0372 |
| AATTCTC | -2.94 | -1.76 | 0.0438 | -0.499 | 0.0165 | -0.539 | -2.79 | -0.0469 | 0.0661 | 0.098 |
| CTTCTCG | 0.0254 | -0.00266 | -0.91 | -0.325 | 0.027 | -0.885 | 0.2 | -0.0338 | 0.0755 | -0.083 |
| GAGGGTT | 0.06 | -0.0604 | 0.262 | 0.476 | -0.0131 | 1.7 | -0.67 | -0.00887 | -0.0117 | -0.0294 |
| GGATCTG | -0.0272 | 0.0574 | 0.237 | 1.03 | -0.0917 | 1.65 | 0.184 | 0.0498 | 0.0477 | 0.056 |
| TCATGCG | -0.0751 | -0.0406 | -0.0499 | 1.18 | 0.0165 | 0.96 | 0.067 | -0.00805 | -0.0858 | -0.116 |

From the supplement of paper PMC7826260
